Assay results published in patent publication EP4431529A1 (Sunshine Guojian Pharmaceutical (Shanghai) Co., Ltd., dated 2024).

T1: VEGF165 (UniProt P15692-4 27-191)
T1 construct: treated as one molecule; also called VEGF protein; VGEF
T1 sequence (looked up): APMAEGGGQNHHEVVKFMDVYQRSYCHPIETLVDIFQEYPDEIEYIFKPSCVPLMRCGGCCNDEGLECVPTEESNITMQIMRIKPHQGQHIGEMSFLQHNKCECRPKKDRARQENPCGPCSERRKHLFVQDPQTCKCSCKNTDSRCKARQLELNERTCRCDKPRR

T2: IL-17A protein (human, UniProt Q16552 24-155)
T2 construct: Embodiments 3 and 4 say only 'IL-17A'; Treated as one molecule; also called human IL-17A
T2 sequence (looked up): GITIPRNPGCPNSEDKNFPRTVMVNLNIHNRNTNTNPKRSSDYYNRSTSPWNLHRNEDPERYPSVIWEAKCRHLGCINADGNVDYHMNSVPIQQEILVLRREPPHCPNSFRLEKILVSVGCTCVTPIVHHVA


How the values were obtained:
[1] = biological target: T1, VEGF165; experiment: ELISA, VEGF coated on the plate
[2] = biological target: T2, IL-17A protein; experiment: ELISA, IL-17A coated on the plate
[3] = biological target: T2, IL-17A protein; experiment: SPR, Biacore 8K, fusion protein captured on Protein A, IL-17A as analyte
[4] = biological target: T1, VEGF165; experiment: SPR, Biacore 8K, fusion protein captured on Protein A, VEGF165 as analyte
[5] = biological target: T2, IL-17A protein; experiment: cell-based or functional assay

| Binder | EC50 [1] | EC50 [2] | Kd [3] | koff [3] | kon [3] | Kd [4] | koff [4] | kon [4] | IC50 of blocking IL-17A-induced IL-6 secretion from HeLa cells [5] |
| --- | --- | --- | --- | --- | --- | --- | --- | --- | --- |
| anti-IL-17/VEGF bifunctional fusion protein 17V01 (other) heavy: EVQLVESGGGLVQPGGSLRLSCAASGFTFSSFDMSWGRQAPGKRLEWVAFMSSGGSTYYPDSVKGRFTISRDNSKNTLYLQMNSLRAEDTAVYYCARGERYGSYWGQGTLVTVSSASTKGPSVFPLAPSSKSTSGGTAALGCLVKDYFPEPVTVSWNSGALTSGVHTFPAVLQSSGLYSLSSVVTVPSSSLGTQTYICNVNHKPSNTKVDKKV[skipping human IgG1 Fc]GGGGSGGGGSDTGRPFVEMYSEIPEIIHMTEGRELVIPCRVTSPNITVTLKKFPLDTLIPDGKRIIWDSRKGFIISNATYKEIGLLTCEATVNGHLYKTNYLTHRQTN light: DIQMTQSPSSLSASVGDRVTITCKASDHINNWLAWYQQKPGKAPKLLISGATSLETGVPSRFSGSGSGTDYTLTISSLQPEDFATYYCQQYWSTPFTFGSGTKLEIKRTVAAPSVFIFPPSDEQLKSGTASVVCLLNNFYPREAKVQWKVDNALQSGNSQESVTEQDSKDSTYSLSSTLTLSKADYEKHKVYACEVTHQGLSSPVTKSFNRGEC | 0.379 nM | 0.052 nM | 0.0185 nM | 4.72e-05 s⁻¹ | 2.55e+06 M⁻¹ s⁻¹ | 0.0193 nM | 0.000786 s⁻¹ | 4.08e+07 M⁻¹ s⁻¹ | – |
| anti-IL-17/VEGF bifunctional fusion protein 17V02 (other) heavy: DTGRPFVEMYSEIPEIIHMTEGRELVIPCRVTSPNITVTLKKFPLDTLIPDGKRIIWDSRKGFIISNATYKEIGLLTCEATVNGHLYKTNYLTHRQTNGGGGSGGGGSGGGGSGGGGSEVQLVESGGGLVQPGGSLRLSCAASGFTFSSFDMSWGRQAPGKRLEWVAFMSSGGSTYYPDSVKGRFTISRDNSKNTLYLQMNSLRAEDTAVYYCARGERYGSYWGQGTLVTVSS[skipping human IgG1 constant region] light: DIQMTQSPSSLSASVGDRVTITCKASDHINNWLAWYQQKPGKAPKLLISGATSLETGVPSRFSGSGSGTDYTLTISSLQPEDFATYYCQQYWSTPFTFGSGTKLEIKRTVAAPSVFIFPPSDEQLKSGTASVVCLLNNFYPREAKVQWKVDNALQSGNSQESVTEQDSKDSTYSLSSTLTLSKADYEKHKVYACEVTHQGLSSPVTKSFNRGEC | 0.327 nM | 0.062 nM | – | – | – | – | – | – | – |
| anti-IL-17/VEGF bifunctional fusion protein 17V06 (other) heavy: EVQLVESGGGLVQPGGSLRLSCAASGFTFSSFDMSWGRQAPGKRLEWVAFMSSGGSTYYPDSVKGRFTISRDNSKNTLYLQMNSLRAEDTAVYYCARGERYGSYWGQGTLVTVSSASTKGPSVFPLAPSSKSTSGGTAALGCLVKDYFPEPVTVSWNSGALTSGVHTFPAVLQSSGLYSLSSVVTVPSSSLGTQTYICNVNHKPSNTKVDKKV[skipping human IgG1 Fc]GGGGSGGGGSDTGRPFVEPYSEIPEIIHMTEGRELVIPCRVTSPNITVTLKKFPLDTLIPDGKRIIWDSRKGFIISNATYKEIGLLTCEATVNGHLYKTNYLTHRQTN light: DIQMTQSPSSLSASVGDRVTITCKASDHINNWLAWYQQKPGKAPKLLISGATSLETGVPSRFSGSGSGTDYTLTISSLQPEDFATYYCQQYWSTPFTFGSGTKLEIKRTVAAPSVFIFPPSDEQLKSGTASVVCLLNNFYPREAKVQWKVDNALQSGNSQESVTEQDSKDSTYSLSSTLTLSKADYEKHKVYACEVTHQGLSSPVTKSFNRGEC | – | – | 0.0225 nM | 5.13e-05 s⁻¹ | 2.28e+06 M⁻¹ s⁻¹ | 0.0153 nM | 0.000582 s⁻¹ | 3.79e+07 M⁻¹ s⁻¹ | 0.778 nM |
| anti-IL-17/VEGF bifunctional fusion protein 17V03 (other) heavy: EVQLVESGGGLVQPGGSLRLSCAASGFTFSSFDMSWGRQAPGKRLEWVAFMSSGGSTYYPDSVKGRFTISRDNSKNTLYLQMNSLRAEDTAVYYCARGERYGSYWGQGTLVTVSS[skipping human IgG1 constant region] light: DIQMTQSPSSLSASVGDRVTITCKASDHINNWLAWYQQKPGKAPKLLISGATSLETGVPSRFSGSGSGTDYTLTISSLQPEDFATYYCQQYWSTPFTFGSGTKLEIKRTVAAPSVFIFPPSDEQLKSGTASVVCLLNNFYPREAKVQWKVDNALQSGNSQESVTEQDSKDSTYSLSSTLTLSKADYEKHKVYACEVTHQGLSSPVTKSFNRGECGGGGSGGGGSDTGRPFVEMYSEIPEIIHMTEGRELVIPCRVTSPNITVTLKKFPLDTLIPDGKRIIWDSRKGFIISNATYKEIGLLTCEATVNGHLYKTNYLTHRQTN | 0.326 nM | 0.041 nM | – | – | – | – | – | – | – |

Next, values leading:

| EC50 [1] | EC50 [2] | Kd [3] | koff [3] | kon [3] | Kd [4] | koff [4] | kon [4] | IC50 of blocking IL-17A-induced IL-6 secretion from HeLa cells [5] | Binder |
| --- | --- | --- | --- | --- | --- | --- | --- | --- | --- |
| – | – | 0.0184 nM | 5e-05 s⁻¹ | 2.72e+06 M⁻¹ s⁻¹ | 0.011 nM | 0.000432 s⁻¹ | 3.94e+07 M⁻¹ s⁻¹ | 0.726 nM | anti-IL-17/VEGF bifunctional fusion protein 17V05 (other) heavy: EVQLVESGGGLVQPGGSLRLSCAASGFTFSSFDMSWGRQAPGKRLEWVAFMSSGGSTYYPDSVKGRFTISRDNSKNTLYLQMNSLRAEDTAVYYCARGERYGSYWGQGTLVTVSSASTKGPSVFPLAPSSKSTSGGTAALGCLVKDYFPEPVTVSWNSGALTSGVHTFPAVLQSSGLYSLSSVVTVPSSSLGTQTYICNVNHKPSNTKVDKKV[skipping human IgG1 Fc]GGGGSGGGGSDTGRPFVEAYSEIPEIIHMTEGRELVIPCRVTSPNITVTLKKFPLDTLIPDGKRIIWDSRKGFIISNATYKEIGLLTCEATVNGHLYKTNYLTHRQTN light: DIQMTQSPSSLSASVGDRVTITCKASDHINNWLAWYQQKPGKAPKLLISGATSLETGVPSRFSGSGSGTDYTLTISSLQPEDFATYYCQQYWSTPFTFGSGTKLEIKRTVAAPSVFIFPPSDEQLKSGTASVVCLLNNFYPREAKVQWKVDNALQSGNSQESVTEQDSKDSTYSLSSTLTLSKADYEKHKVYACEVTHQGLSSPVTKSFNRGEC |
| 0.397 nM | – | – | – | – | – | – | – | – | FC-D2 (Fc fusion, Control in the VEGF ELISA) [skipping human IgG1 Fc]GGGGSGGGGSDTGRPFVEMYSEIPEIIHMTEGRELVIPCRVTSPNITVTLKKFPLDTLIPDGKRIIWDSRKGFIISNATYKEIGLLTCEATVNGHLYKTNYLTHRQTNTI |
| 0.371 nM | 0.105 nM | – | – | – | – | – | – | – | anti-IL-17/VEGF bifunctional fusion protein 17V04 (other) heavy: EVQLVESGGGLVQPGGSLRLSCAASGFTFSSFDMSWGRQAPGKRLEWVAFMSSGGSTYYPDSVKGRFTISRDNSKNTLYLQMNSLRAEDTAVYYCARGERYGSYWGQGTLVTVSS[skipping human IgG1 constant region] light: DTGRPFVEMYSEIPEIIHMTEGRELVIPCRVTSPNITVTLKKFPLDTLIPDGKRIIWDSRKGFIISNATYKEIGLLTCEATVNGHLYKTNYLTHRQTNGGGGSGGGGSGGGGSGGGGSDIQMTQSPSSLSASVGDRVTITCKASDHINNWLAWYQQKPGKAPKLLISGATSLETGVPSRFSGSGSGTDYTLTISSLQPEDFATYYCQQYWSTPFTFGSGTKLEIKRTVAAPSVFIFPPSDEQLKSGTASVVCLLNNFYPREAKVQWKVDNALQSGNSQESVTEQDSKDSTYSLSSTLTLSKADYEKHKVYACEVTHQGLSSPVTKSFNRGEC |
